Experimental data: article PMC8444549
Results are given in words; binding and its absence hold for the method and conditions named. For part of these data: Binding seen in cells or lysates may run through a third protein. Some entries that bind do so weakly or less than the wild type. For part of these data: Sequences can lack the tags named with a protein.

The chains behind the UniProt entries cited, without tags or fusion partners. Residues count along the entry.
UniProt P01127, residues 82-190: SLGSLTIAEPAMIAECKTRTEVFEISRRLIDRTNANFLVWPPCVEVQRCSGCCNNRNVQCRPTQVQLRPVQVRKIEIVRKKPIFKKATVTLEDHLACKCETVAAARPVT

T1: Kai1-GFP fusion protein (UniProt P40237)
T1 sequence: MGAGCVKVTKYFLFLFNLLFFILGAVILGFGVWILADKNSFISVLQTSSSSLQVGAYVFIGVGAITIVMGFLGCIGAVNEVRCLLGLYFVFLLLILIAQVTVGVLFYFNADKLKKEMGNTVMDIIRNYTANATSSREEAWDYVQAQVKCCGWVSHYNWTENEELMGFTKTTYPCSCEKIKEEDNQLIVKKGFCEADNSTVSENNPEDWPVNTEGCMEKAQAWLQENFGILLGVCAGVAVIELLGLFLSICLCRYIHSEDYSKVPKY


What was measured:
Kai1-GFP fusion protein = biological target: T1, Kai1-GFP fusion protein; assay: co-IP; Kai1-Gfp fusion vector and Dhhc-Ha vectors co-transfected into 293T cells; 23 zDHHC enzymes screened
[1] = biological target: recombinant human PDGF-BB (human) (UniProt P01127); assay: BLI; BLItz instrument (ForteBio), real-time binding, shift in nm; the legends call it surface plasmon resonance (BLItz system); who was immobilised is not stated; both purified
[2] = biological target: recombinant human PDGF-BB (human) (UniProt P01127); assay: co-IP; 293T cell lysates in IP buffer, anti-VEGF-A or anti-PDGF-BB antibody overnight at 4 °C, protein A/G sepharose, western blot; legend names rhVEGF-A and rhPDGF-BB; only the target purified
[3] = biological target: recombinant human PDGF-BB (human) (UniProt P01127); assay: condition: only cells treated with 2-bp (inhibitor of palmitoylation); co-IP; as a3, 293T cells treated with 2-bp (inhibition of palmitoylation); only the target purified

Binder | binding (Kai1-GFP fusion protein) | binding [1] | other results
zDHHC4-HA (enzyme, UniProt Q9D6H5 1-343) MDFLVLFLFYLAFLLICVVLICIFTKSQRLKAVVLGGAQVCSRVIPQCLQRAVQTLLHQLFHTRHPTFIVLHLLLQGLVYAEYTCEVFGYCRELEFSLPYLLLPYVLLSVNLVFFTLTCAANPGTITKANESFLLQVYKFDDVMFPKNSRCPTCDLRKPARSKHCRLCDRCVHRFDHHCVWVNNCIGAWNTRYFLIYLLTLTASAATIATVTAAFLLRLVTVSDLYQETYLDDVGHFQAVDTVFLIQHLFLAFPRIVFLLGFVIVLSMLLAGYLCFALYLAATNQTTNEWYKGDWAWCQRWPLVAWSPSAEPRIHQNIHSHGFRSNLREIFLPATPSYKKKEK | binds |  | 
NRPEVTYPCSCEVKGEEDNS [KAI1 peptide, wild-type sequence] |  | binds | 
KAI1-Myc (protein, UniProt P40237 1-266) MGAGCVKVTKYFLFLFNLLFFILGAVILGFGVWILADKNSFISVLQTSSSSLQVGAYVFIGVGAITIVMGFLGCIGAVNEVRCLLGLYFVFLLLILIAQVTVGVLFYFNADKLKKEMGNTVMDIIRNYTANATSSREEAWDYVQAQVKCCGWVSHYNWTENEELMGFTKTTYPCSCEKIKEEDNQLIVKKGFCEADNSTVSENNPEDWPVNTEGCMEKAQAWLQENFGILLGVCAGVAVIELLGLFLSICLCRYIHSEDYSKVPKY |  |  | binding [2]: binds; binding [3]: no binding
zDHHC3-HA (enzyme, UniProt Q8R173 1-299) MMLIPTHHFRDIERKPEYLQPEKCAPPPFPGPAGAMWFIRDGCGIACAIVTWFLVLYAEFVVLFVMLVPSRDYAYSIINGIVFNLLAFLALASHCRAMLTDPGAVPKGNATKEFIESLQLKPGQVVYKCPKCCSIKPDRAHHCSVCKRCIRKMDHHCPWVNNCVGENNQKYFVLFTMYIALISLHALIMVGFHFLHCFEEDWTKCSSFSPPTTVILLILLCFEALLFLIFTSVMFGTQVHSICTDETGIEQLKKEERRWAKKTKWMNMKAVFGHPFSLGWASPFATPDQGKADPYQYVV | binds |  | 
NRPEVTAPASCEVKGAAANS [KAI1 peptide, mutant sequence] |  | no binding | 
